Source: the supplement of paper PMC4967469
IC50 is the fitted dose that halves viability relative to control wells, and lower means more sensitive; fits outside the tested doses are given as limits. AUC is the area under the same curve over the 256-fold range up to the top dose, as a fraction: 1 means no effect, lower means more sensitive. For some of these results: Where the top dose is marked as inferred, it was calculated from the reported fits. For some of these results: Where an entry number is given, a second screen of the drug exists; the two often differ.

Tests used:
Experiment in all cases: Viability of human cancer cell lines after 72 h of drug (GDSC screen)
AZD-0530 = compound: CN1CCN(CCOc2cc(OC3CCOCC3)c3c(Nc4c(Cl)ccc5c4OCO5)ncnc3c2)CC1 [AZD-0530]; details: top dose 2 µM
Method: (§1)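 Human cancer cell lines in 384-well plates, medium with 10% serum, drug for 72 h over a 256-fold dose range (nine 2-fold or five 4-fold steps up to the top dose). Adherent lines were fixed and stained with the nucleic acid dye Syto60, suspension lines read with resazurin; signal relative to control wells, capped at 0 and 100%. One two-parameter sigmoid per drug and line, fitted in a mixed model over all curves with the slope shared within a line.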

Imatinib = compound: Cc1ccc(NC(=O)c2ccc(CN3CCN(C)CC3)cc2)cc1Nc1nccc(-c2cccnc2)n1 [Imatinib]; details: top dose 2 µM
Method: as §1

Pyrimethamine = compound: CCc1nc(N)nc(N)c1-c1ccc(Cl)cc1 [Pyrimethamine]; details: top dose 20 µM; top dose inferred
Method: as §1

Y-39983 = compound: C[C@@H](N)c1ccc(C(=O)Nc2ccnc3[nH]ccc23)cc1 [Y-39983]; details: top dose 20 µM; top dose inferred
Method: as §1

PHA-793887 = compound: CC(C)CC(=O)Nc1n[nH]c2c1CN(C(=O)C1CCN(C)CC1)C2(C)C [PHA-793887]; details: top dose 10.24 µM
Method: as §1

Epothilone B = compound: C/C(=C\c1csc(C)n1)[C@@H]1C[C@@H]2O[C@]2(C)CCC[C@H](C)[C@H](O)[C@@H](C)C(=O)C(C)(C)[C@@H](O)CC(=O)O1 [Epothilone B]; details: top dose 0.032 µM; top dose inferred
Method: as §1

TPCA-1 = compound: NC(=O)Nc1sc(-c2ccc(F)cc2)cc1C(N)=O [TPCA-1]; details: top dose 20 µM
Method: as §1

PLX4720 = compound: CCCS(=O)(=O)Nc1ccc(F)c(C(=O)c2c[nH]c3ncc(Cl)cc23)c1F [PLX4720]; details: top dose 10 µM
Method: as §1

[1] = screen: GDSC drug entry 1371, top dose inferred

Row | Cell Line | AUC (AZD-0530) | IC50 (AZD-0530) | AUC (Imatinib) | IC50 (Imatinib) | AUC (Pyrimethamine) | IC50 (Pyrimethamine) | AUC (Y-39983) | IC50 (Y-39983) | AUC (PHA-793887) | IC50 (PHA-793887) | AUC (Epothilone B) | IC50 (Epothilone B) | AUC (TPCA-1) | IC50 (TPCA-1) | AUC (PLX4720; screen: GDSC drug entry 1036) | IC50 (PLX4720; screen: GDSC drug entry 1036) | AUC (PLX4720; [1]) | IC50 (PLX4720; [1])
1 | CP67-MEL (melanoma, adherent) | 0.95 | > 2 µM | 0.95 | > 2 µM |  |  |  |  |  |  |  |  |  |  |  |  |  | 
2 | SUP-HD1 (Hodgkin lymphoma, suspension) | 0.982 | > 2 µM |  |  | 0.907 | > 20 µM | 0.82 | 10.8 µM | 0.468 | 0.526 µM | 0.767 | 0.0114 µM | 0.564 | 1.85 µM | 0.971 | > 10 µM | 0.982 | > 10 µM
3 | SUP-M2 (anaplastic large cell lymphoma, suspension) | 0.994 | > 2 µM |  |  | 0.936 | > 20 µM | 0.846 | 9.75 µM | 0.178 | 0.0968 µM | 0.685 | 0.0057 µM | 0.704 | 3.98 µM | 0.987 | > 10 µM | 0.99 | > 10 µM
4 | SW684 (fibrosarcoma, adherent) | 0.925 | > 2 µM |  |  | 0.953 | > 20 µM | 0.983 | > 20 µM | 0.974 | > 10.2 µM | 0.982 | > 0.032 µM | 0.983 | > 20 µM | 0.983 | > 10 µM | 0.98 | > 10 µM
5 | SW872 (soft tissue, adherent) | 0.863 | 1.46 µM |  |  | 0.916 | > 20 µM | 0.987 | > 20 µM | 0.974 | > 10.2 µM | 0.331 | 0.000714 µM | 0.946 | > 20 µM |  |  | 0.827 | 5.32 µM
6 | SW962 (urogenital system, adherent) | 0.877 | > 2 µM |  |  | 0.942 | > 20 µM | 0.924 | > 20 µM | 0.914 | > 10.2 µM | 0.424 | 0.00118 µM | 0.847 | > 20 µM | 0.98 | > 10 µM | 0.975 | > 10 µM
7 | TC-71 (Ewing sarcoma, adherent) | 0.982 | > 2 µM |  |  | 0.97 | > 20 µM | 0.919 | > 20 µM | 0.679 | 1.83 µM | 0.908 | 0.0312 µM | 0.561 | 1.78 µM | 0.955 | > 10 µM | 0.974 | > 10 µM
8 | TE-1 (oesophagus, adherent) | 0.81 | 1.42 µM |  |  | 0.776 | 10.2 µM | 0.974 | > 20 µM | 0.982 | > 10.2 µM | 0.516 | 0.00223 µM | 0.967 | > 20 µM | 0.968 | > 10 µM | 0.95 | > 10 µM
9 | TE-5 (oesophagus, adherent) | 0.963 | > 2 µM |  |  | 0.892 | > 20 µM | 0.969 | > 20 µM | 0.887 | > 10.2 µM | 0.551 | 0.00281 µM | 0.95 | > 20 µM | 0.98 | > 10 µM | 0.981 | > 10 µM
10 | TE-6 (oesophagus, adherent) | 0.921 | > 2 µM |  |  | 0.907 | > 20 µM | 0.986 | > 20 µM | 0.954 | > 10.2 µM | 0.769 | 0.0141 µM | 0.936 | > 20 µM | 0.986 | > 10 µM | 0.984 | > 10 µM
11 | TE-8 (oesophagus, adherent) | 0.791 | 0.966 µM |  |  | 0.968 | > 20 µM | 0.929 | > 20 µM | 0.98 | > 10.2 µM | 0.181 | 0.0002 µM | 0.824 | 13 µM | 0.948 | > 10 µM | 0.984 | > 10 µM
12 | TE-9 (oesophagus, adherent) | 0.972 | > 2 µM |  |  | 0.982 | > 20 µM | 0.984 | > 20 µM | 0.987 | > 10.2 µM | 0.477 | 0.00173 µM | 0.979 | > 20 µM | 0.978 | > 10 µM | 0.979 | > 10 µM
13 | TE-10 (oesophagus, adherent) | 0.846 | 1.42 µM |  |  | 0.937 | > 20 µM | 0.98 | > 20 µM | 0.922 | > 10.2 µM | 0.378 | 0.000927 µM | 0.942 | > 20 µM | 0.988 | > 10 µM | 0.986 | > 10 µM
14 | TE-15 (oesophagus, suspension) | 0.65 | 0.345 µM |  |  | 0.974 | > 20 µM | 0.979 | > 20 µM | 0.809 | 6.19 µM | 0.203 | 0.000231 µM | 0.611 | 2.64 µM | 0.915 | > 10 µM | 0.954 | > 10 µM
15 | TGBC1TKB (biliary tract, adherent) | 0.959 | > 2 µM |  |  | 0.989 | > 20 µM | 0.983 | > 20 µM | 0.989 | > 10.2 µM | 0.88 | > 0.032 µM | 0.965 | > 20 µM | 0.98 | > 10 µM | 0.985 | > 10 µM
16 | TGW (neuroblastoma, adherent) | 0.984 | > 2 µM |  |  | 0.937 | > 20 µM | 0.821 | 9.51 µM | 0.95 | > 10.2 µM | 0.802 | 0.0132 µM | 0.815 | 9.06 µM | 0.988 | > 10 µM | 0.981 | > 10 µM
17 | TK10 (kidney, adherent) | 0.809 | 1.32 µM |  |  | 0.757 | 8.25 µM | 0.908 | > 20 µM | 0.928 | > 10.2 µM | 0.51 | 0.00214 µM | 0.691 | 4.86 µM | 0.934 | > 10 µM | 0.968 | > 10 µM
18 | TUR (B-cell lymphoma, suspension) | 0.988 | > 2 µM |  |  | 0.978 | > 20 µM | 0.885 | 19 µM | 0.379 | 0.305 µM | 0.485 | 0.00183 µM | 0.422 | 0.778 µM | 0.917 | > 10 µM | 0.951 | > 10 µM
19 | U-87-MG (glioma, adherent) | 0.98 | > 2 µM |  |  | 0.962 | > 20 µM | 0.975 | > 20 µM | 0.882 | > 10.2 µM | 0.792 | 0.0173 µM | 0.985 | > 20 µM | 0.981 | > 10 µM | 0.952 | > 10 µM
20 | U-698-M (B-cell leukaemia, suspension) | 0.985 | > 2 µM |  |  | 0.889 | > 20 µM | 0.75 | 6.53 µM | 0.756 | 3.51 µM | 0.692 | 0.00692 µM | 0.713 | 5 µM | 0.937 | > 10 µM | 0.961 | > 10 µM
21 | UACC-257 (melanoma, adherent) | 0.973 | > 2 µM |  |  | 0.603 | 2.57 µM | 0.96 | > 20 µM | 0.84 | 9.71 µM | 0.793 | 0.0188 µM | 0.894 | > 20 µM | 0.632 | 1.58 µM | 0.633 | 1.6 µM
22 | VAL (B-cell lymphoma, suspension) | 0.986 | > 2 µM |  |  | 0.726 | 5.5 µM | 0.793 | 9.15 µM | 0.594 | 1.16 µM | 0.839 | 0.022 µM | 0.599 | 2.34 µM | 0.984 | > 10 µM | 0.983 | > 10 µM
23 | VCaP (prostate, adherent) | 0.978 | > 2 µM |  |  | 0.978 | > 20 µM | 0.987 | > 20 µM | 0.905 | > 10.2 µM | 0.67 | 0.00608 µM | 0.764 | 7.54 µM | 0.987 | > 10 µM | 0.986 | > 10 µM
24 | WIL2-NS (lymphoid neoplasm, suspension) | 0.962 | > 2 µM |  |  | 0.492 | 1.19 µM | 0.84 | 10.2 µM | 0.129 | 0.061 µM | 0.541 | 0.00253 µM | 0.551 | 1.68 µM | 0.992 | > 10 µM | 0.99 | > 10 µM
25 | WSU-DLCL2 (B-cell lymphoma, suspension) | 0.986 | > 2 µM |  |  | 0.984 | > 20 µM | 0.942 | > 20 µM | 0.858 | 6.25 µM | 0.991 | > 0.032 µM | 0.937 | > 20 µM | 0.983 | > 10 µM | 0.93 | > 10 µM
26 | WSU-NHL (lymphoid neoplasm, suspension) | 0.976 | > 2 µM |  |  | 0.918 | > 20 µM | 0.631 | 2.73 µM | 0.884 | 8.77 µM | 0.626 | 0.00426 µM | 0.411 | 0.737 µM | 0.936 | > 10 µM | 0.99 | > 10 µM
27 | YT (lymphoid neoplasm, suspension) | 0.987 | > 2 µM |  |  | 0.99 | > 20 µM | 0.878 | 15.1 µM | 0.886 | 8.32 µM | 0.821 | 0.015 µM | 0.077 | < 0.0781 µM | 0.837 | 5.32 µM | 0.992 | > 10 µM
28 | no-10 (glioma, adherent) | 0.97 | > 2 µM |  |  | 0.954 | > 20 µM | 0.935 | > 20 µM | 0.676 | 2.23 µM | 0.65 | 0.00573 µM | 0.969 | > 20 µM |  |  | 0.966 | > 10 µM
29 | no-11 (glioma, adherent) | 0.977 | > 2 µM |  |  | 0.982 | > 20 µM | 0.96 | > 20 µM | 0.873 | > 10.2 µM | 0.861 | > 0.032 µM | 0.92 | > 20 µM | 0.952 | > 10 µM | 0.978 | > 10 µM
